# Laboratory results taken from PubChem BioAssay AID488969 (Vanderbilt High Throughput Screening Facility, 2010).
# In all, about 110,000 compounds were measured (“z-score”: median about -0.1, highest 2% from about 2 on). The list shows a part of the results.
# Biological target: Metabotropic glutamate receptor 8 (Rattus norvegicus) (UniProt P70579)
# Assay: rat mGluR8 modulators via GIRK flux, primary screen, cell-based, thallium flux, HTS (AID 488969)
# Conditions: HEK293 rat mGluR8, GIRK (G protein-gated inwardly rectifying potassium channel) thallium flux, FluoZin2; at 10 µM; stronger effect = higher value; submaximal glutamate (EC20) added with thallium
# UniProt P70579, sequence (P70579 whole entry, looked up): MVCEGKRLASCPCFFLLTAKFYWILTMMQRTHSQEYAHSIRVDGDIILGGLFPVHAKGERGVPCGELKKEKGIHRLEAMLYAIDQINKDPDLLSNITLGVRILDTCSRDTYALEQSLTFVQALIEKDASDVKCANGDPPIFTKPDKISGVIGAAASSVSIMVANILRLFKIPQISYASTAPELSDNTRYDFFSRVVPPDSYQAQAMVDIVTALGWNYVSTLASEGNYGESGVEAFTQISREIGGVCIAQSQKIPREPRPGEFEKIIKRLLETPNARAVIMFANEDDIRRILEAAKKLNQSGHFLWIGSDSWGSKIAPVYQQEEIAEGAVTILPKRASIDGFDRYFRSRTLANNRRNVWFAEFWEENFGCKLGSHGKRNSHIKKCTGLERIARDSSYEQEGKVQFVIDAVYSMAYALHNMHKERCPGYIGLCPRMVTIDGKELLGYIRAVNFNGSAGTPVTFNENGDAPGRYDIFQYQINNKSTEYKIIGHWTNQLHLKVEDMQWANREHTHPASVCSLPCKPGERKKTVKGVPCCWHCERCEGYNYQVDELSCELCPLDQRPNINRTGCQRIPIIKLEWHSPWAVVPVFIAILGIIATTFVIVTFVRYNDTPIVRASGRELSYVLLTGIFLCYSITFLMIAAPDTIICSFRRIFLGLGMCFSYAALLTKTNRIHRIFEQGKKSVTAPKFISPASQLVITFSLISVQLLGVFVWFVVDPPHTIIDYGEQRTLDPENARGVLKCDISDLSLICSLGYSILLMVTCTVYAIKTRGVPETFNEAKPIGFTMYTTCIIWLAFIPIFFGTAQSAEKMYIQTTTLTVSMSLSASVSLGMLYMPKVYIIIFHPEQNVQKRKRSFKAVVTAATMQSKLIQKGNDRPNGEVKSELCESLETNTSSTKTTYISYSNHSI
row,SMILES,z-score
1,COc1ccc(-c2cc(C(=O)N/N=C/c3sccc3C)c3ccccc3n2)c(OC)c1,0.0432
2,Cc1cccc(CC2CC(=O)N(c3ncccn3)C2=O)c1 (configuration not stated),-0.533
3,Cc1ccccc1C1C(C#N)=C2NC(=O)c3c(sc4c3CCCCC4)N2C2=C1C(=O)CC(C)(C)C2 (configuration not stated),1.56
4,COC(=O)c1ccc(Cn2c(O)c(N=O)c3ccccc32)o1,-0.863
5,COCCn1nnnc1C(c1ccc(OC)c(OC)c1)N1CCN(c2nc3ccccc3s2)CC1 (configuration not stated),-0.198
6,Cc1noc(C)c1S(=O)(=O)NCc1ccc2c(c1)OCO2,-0.235
7,Cc1nnc(SCC(=O)NC2CC2)n1CCc1ccccc1,-0.0997
8,COc1ccc(NS(=O)(=O)c2ccc(C)c(NC(=O)NC3CCCCC3)c2)cc1,-0.211
9,CCN(CC)c1ccc2c(Cl)cc(=O)oc2c1,-0.424
10,N#CCCS(=O)(=O)c1nnnn1-c1ccccc1,0.0771
11,N#CCN1CCN(CC(=O)Nc2ccc(OCc3ccccc3)cc2)CC1,-0.0615
12,Cc1cc2cc(CNC(=O)C3CC3)ccc2n1C,-0.0748
13,CC(C)C(=O)c1cc2c(cc1NC(=O)c1cccs1)OCCO2,0.243
14,COc1cccc(C2[C@H](C)C3(CCN2C)OCCO3)c1 (some centres not stated),-0.111
15,COC(=O)c1ccccc1NC(=O)Oc1ccc(C(C)C)cc1,0.456
16,O=C(CSc1ncnc2c1nnn2Cc1ccccc1F)N1CCN(c2ccccc2)CC1,-0.298
17,O=C(CCC1CCCCC1)Nc1ccccc1-c1ccccc1,0.0438
18,O=C(Nc1ccccc1SCC1CSc2nc3ccccc3c(=O)n21)c1ccccc1Cl (configuration not stated),0.159
19,O=C(CCN1C(=O)c2ccccc2C1=O)NCCN1CCOCC1,0.325
20,CCOC(=O)c1cc2c(C)n(-c3ccc(N(C)C)cc3)c(C)c2cc(C(=O)OCC)c1=O,-0.953
21,COc1ccc(C(=O)OCC(=O)NCc2ccco2)cc1S(=O)(=O)N1CCN(c2cccc(Cl)c2)CC1,-0.853
22,CCOC(=O)Cc1csc(NC(=O)c2ccc(Br)o2)n1,0.017
23,CCCCc1ccc(NC(=O)CSCc2cc(=O)[nH][nH]2)cc1,0.0665

row,SMILES,z-score
1,Cn1c(Oc2ccc(Cl)cc2)c(C=O)c2ccccc21,-0.356
2,Nn1c(SCC(=O)N2CCCc3ccccc32)nnc1-c1ccccc1,-0.699
3,COc1ccc(OC)c(S(=O)(=O)NC2CCN(Cc3ccccc3)CC2)c1,-0.569
4,CCCCC(=O)OCc1cn(-c2ccc(Cl)cc2)nn1,-0.38
5,COCc1cc(C)nc2sc(C(=O)NC3CCCCC3)c(N)c12,-0.0567
6,Cc1ccc(-c2cc(C(=O)n3cnc4ccccc43)c3ccccc3n2)cc1C,-0.856
7,Cc1cc(Nc2ccc(Cl)cc2)n(-c2cccc(Cl)c2)n1,-0.303
8,COc1cccc(/C=C2\SC(=S)N(CC3CCCO3)C2=O)c1 (configuration not stated),1.24
9,C/C=C(\C)CN1CCN(c2cccc(C)c2C)CC1,0.899
10,COc1ccc(-c2nn(-c3ccccc3)cc2C(=O)OCC(=O)c2ccc(C)c([N+](=O)[O-])c2)cc1,0.113
11,Cc1cc(C)c(S(=O)(=O)N(C2=NCCS2)S(=O)(=O)c2c(C)cc(C)cc2C)c(C)c1,0.00982
12,CS(=O)(=O)N(CC(=O)NCCSCc1cccc(Cl)c1)c1ccc2c(c1)OCO2,-0.389
13,O=C(CN1CCN(S(=O)(=O)c2ccc(F)cc2)CC1)Nc1ccc2c(c1)OCO2,0.129
14,COc1cc(C)ccc1OCCCON1C(=O)CCC1=O,0.122
15,CCCCNCCOCCOc1ccc(C)cc1[N+](=O)[O-],0.181
16,O=C(COC(=O)c1cc(-c2ccccc2)nc2ccccc12)Nc1ccc2c(c1)OCO2,-0.372
17,O=C(NCC1CCCO1)C(c1cccs1)N(C(=O)c1ccc(-c2ccccc2)[nH]1)C1CCCC1 (configuration not stated),-0.0712
18,Cc1c(Cl)c([N+](=O)[O-])nn1CC(=O)NC(C)C1CC2CCC1C2 (configuration not stated),-0.0812
19,COc1ccc(-c2cc(=O)c3ccccc3s2)cc1,0.583
20,C=CCn1c(N)cc(=O)nc1SCC(=O)Nc1cccc2ccccc12,-0.25
21,CCNC(=S)Nc1ccc(OCC)cc1,-0.0942
22,O=C(Cc1ccccc1)Nn1cnc2ccccc21,0.0614
23,COc1ccc(NC(=O)c2cccc(-n3cnnn3)c2)cc1,0.463

row,SMILES,z-score
1,O=C(NCc1cccs1)C1CCCN(c2nc3ccccc3o2)C1 (configuration not stated),0.146
2,O=S(=O)(Nc1ccc2c(c1)CCC2)c1cccs1,-1.02
3,CCCc1cc(C(=O)NCc2cccs2)no1,0.268
4,O=C(c1cc2sccc2n1Cc1ccc(F)cc1)N1CCc2ccccc21,-0.13
5,Cc1cc(OCC(=O)N2CCCC2)cc(C)c1Cl,-0.034
6,CCCCn1c(/N=C/c2cc(OC)ccc2O)nc2ccccc21,0.474
7,COc1cc(NC(=O)C23CC4CC(C2)CC(n2cnc([N+](=O)[O-])n2)(C4)C3)cc(OC)c1,-0.25
8,CC(C)(C)C1CCc2onc(C(=O)NC3CCCC3)c2C1 (configuration not stated),-0.19
9,Cc1ccc(N=Cc2c(O)n(-c3nccs3)c(=O)c3ccccc23)c(C)c1,-0.933
10,Cc1ccc(NC(=S)Nc2ccc(Br)cc2)cc1,-0.17
11,CCc1nnc(NC(=O)CSc2nc3cc4c(cc3cc2CC)OCCO4)s1,-0.463
12,COc1cc(S(=O)(=O)NC2CCCCC2)ccc1Cl,-0.00578
13,C[C@H](NC(=O)NCc1cccs1)C(=O)O,0.036
14,O=C(CSc1nnc(CNC(=O)c2ccccc2F)o1)Nc1ccc2c(c1)OCCO2,-0.184
15,O=C1C(Cl)=C(N2CCCCC2)C(=O)C(Cl)=C1c1cnc(N2CCCCC2)s1,0.133
16,CCN(CC)c1ccc(/C=C(/C#N)c2nc3ccc(C)cc3[nH]2)c(OC(C)C)c1,-0.63
17,O=C(COC(=O)COc1ccccc1Cc1ccccc1)Nc1cccnc1Cl,-0.941
18,CC(=C/c1ccccc1)/C=N/NC(=O)c1ccc2nc[nH]c2c1,0.107
19,COc1ccc(C(=O)NC2CCCCCC2)cc1S(=O)(=O)N1CCCc2ccccc21,-0.00531
20,Cc1ccc(C(=O)N2CCOCC2)cc1S(=O)(=O)Nc1cccc(C)c1C,0.356
21,O=C(CN(CCc1ccccc1)C(=O)CNS(=O)(=O)c1ccccc1)NCC1CCCO1 (configuration not stated),-0.228
22,CCOC(=O)C1Cc2c([nH]c3ccccc23)C(C)N1 (configuration not stated),-0.295
23,CCCOc1ccc(Oc2cc(C)nc(SC)n2)nn1,0.217

row,SMILES,z-score
1,O=c1c2ccccc2c(-c2ccccc2)nn1-c1cc(Cl)ccc1[N+](=O)[O-],-0.343
2,COc1ccc(CCNC(=O)CCC(=O)Nc2nnc(C(C)C)s2)cc1OC,-0.334
3,O=C(CSc1nnc(CN2CCOCC2)n1-c1ccc(Cl)cc1)N1CCc2ccccc21,-0.227
4,COCCNS(=O)(=O)c1ccc(F)c(OC)c1,0.457
5,COc1cc(NC(=O)c2ccc3c(c2)OCO3)ccc1NC(=O)c1ccco1,0.0386
6,Cc1c(SCCO)c(=O)[nH]c2cc3c(cc12)OCO3,0.456
7,Cc1ccc2oc(C(Cl)(Cl)Cl)cc(=O)c2c1,0.0333
8,Clc1ccc(Nc2nc3ccccc3n3nnnc23)cc1,-0.133
9,CC1CCN(CC(=O)Nc2ccccc2C#N)CC1,0.0437
10,CN1CCN(Cc2nc3ccccc3c(=O)n2Cc2nc(-c3ccc4ccccc4c3)cs2)CC1,-2.27
11,O=C(Oc1ccc(-c2cnc3ccccc3n2)cc1)c1ccc(Cl)c([N+](=O)[O-])c1,-1.6
12,Brc1ccc(CN2CCSCC2)cc1,-0.247
13,CCCCCOC(=O)CSc1nnc(-c2ccccc2)c(=O)[nH]1,-0.0773
14,Cc1cccc(-n2c(N)cc(=O)nc2SCC(=O)Nc2nnc(CC(C)C)s2)c1,0.444
15,O=C(/C=C/c1ccc([N+](=O)[O-])cc1)NCCSc1ccccc1,-0.281
16,CC(C)NC(=O)NC1C2CC3CC(C2)CC1C3 (configuration not stated),-0.143
17,O=C(Cn1cc(C(=O)c2cccs2)c2ccccc21)NCc1cccs1,-1.78
18,COc1cc2c(C(=O)NCCCN3CCN(c4cccc(Cl)c4)CC3)cn(C)c(=O)c2cc1OC,0.447
19,CC(=O)c1cccc(Nc2cc(C)nc3c(C)cc(C)cc23)c1,-0.663
20,O=C(NCc1cccs1)c1ccncc1,0.938
21,O=C(CSc1ccc(-c2nc3ccccc3[nH]2)cn1)N1CCN(C(=O)c2ccco2)CC1,-1.08
22,CCOC(=O)CSC1=C(C#N)C(c2ccccc2C)C2=C(CCCC2=O)N1 (configuration not stated),-0.3
23,Cc1cc(OCCN2CCOCC2)ccc1[N+](=O)[O-],0.113

row,SMILES,z-score
1,Cc1ccc(S(=O)(=O)N(C)CC(=O)N2CCN(c3ccccn3)CC2)cc1,-0.71
2,CCOC(=O)C1=C(C)OC(N)=C(C#N)C1c1cc(C)sc1C (configuration not stated),0.338
3,O=C1c2ccccc2CCCC12N=NCC2c1cccc2ccccc12 (configuration not stated),-0.185
4,COC(=O)N/N=C/c1cn(Cc2ccccc2Cl)c2ccccc12,-0.214
5,CN(C(=O)C12CC3CC(CC(C3)C1)C2)C1(C)CCS(=O)(=O)C1 (configuration not stated),-0.0678
6,CCOc1ccc(C(C)=O)cc1Cc1c(O)nc(N)[nH]c1=O,0.0977
7,O=C(CNC(=O)c1ccccc1)NCC1COc2ccccc2O1 (configuration not stated),0.11
8,Cc1cc([N+](=O)[O-])nn1CCC(=O)NC1CCCCCC1,-0.0418
9,COc1ccc(CC(=O)NCC(=O)N/N=C/c2ccc(C)o2)cc1,-0.191
10,Cc1nc(Nc2ccccc2)sc1-c1ccccc1,-0.247
11,C=CCNc1nc(-c2sc(NC(=O)CC)nc2C)cs1,-0.995
12,CCCCOc1cccc(-c2cc(C(=O)NNC(=S)NCC)c3ccccc3n2)c1,0.0553
13,CCCN(CCC)CC(=O)NCC1(c2ccccc2)CCOCC1,-0.148
14,CC(=O)C(Sc1ccc2nnc(-c3ccncc3)n2n1)C(C)=O,0.0188
15,CCCOC(=O)c1ccc(OCC(O)CN2C(=O)NC(C)(C)C2=O)cc1 (configuration not stated),0.307
16,CC(SC(=S)N1CCOCC1)C(=O)O (configuration not stated),-0.207
17,O=C(Nc1ccc(Br)cn1)c1cccc(-c2cc3ccccc3oc2=O)c1,-0.0253
18,CC1=CC(=C(C#N)c2nc3ccccc3s2)C=C(C)N1c1ccc(F)cc1,-0.153
19,Cc1nn(C2CCS(=O)(=O)C2)c(Cl)c1/C=C/C(=O)OCC(=O)c1cc(C)n(-c2ccc(F)cc2)c1C (configuration not stated),0.234
20,COc1ccccc1N1CCN(C(=O)CN(CCc2ccccc2)S(C)(=O)=O)CC1,0.0799
